The whole screen tested about 330,000 compounds, of which about 300 (0.091%) were called active. This list was built around the results that the source calls inconclusive (neither active nor inactive); the mix of calls is not that of the screen. Calls follow the shape of the dose curve; as a rule, active = well fitted inhibition curve with a large enough effect; inconclusive = small, poorly fitted or top-dose-only effect, or effect the other way, or another doubt; inactive = no such curve, though single readings can be large or run the other way. Potencies of inconclusive entries are left out as doubtful fits.
What follows are compounds tested against Lysosomal acid glucosylceramidase (Homo sapiens) (UniProt P04062) (assay: qHTS Assay for Inhibitors and Activators of N370S glucocerebrosidase as a Potential Chaperone Treatment of Gaucher Disease). Details: N370S GC spleen homogenate, 4MU-glucoside fluorescence; activity change, negative = inhibition: at 59.4 µM (top of the series) unless noted.
With `COCCNc1nc(-c2ccccc2C(F)(F)F)nc2ccccc12` the Potency was inconclusive [inhibitor, full curve, poor fit]. `COc1ccc2nc3c(cc2c1)Cn1c-3nc2ccccc2c1=O` was tested, and the Potency was “inactive”. `Cc1ccc(C)c(OCCC(=O)NNC(=O)c2ccccc2)c1` was tested, and the Potency was inconclusive [inhibitor, full curve]. `CCc1cc2c(C)cc(C)cc2nc1SCC(=O)Nc1cc(C)on1` was tested, and the Potency was inconclusive [activator, partial curve]. With `COCC(C)NC(=O)c1cc2c(ccc3ccccc32)oc1=O` (centres undefined) the Potency was inconclusive [activator, partial curve]. In the case of `CCN(CC)S(=O)(=O)c1cccc(C(=O)N/N=C2\CC(=O)CC(C)(C)C2)c1`, the Potency is reported as inconclusive [inhibitor, single point]. With `Cc1ccc(C)c(Cc2c(C)nc3c(C(=O)NCc4ccc5c(c4)OCO5)cnn3c2C)c1` the Potency was inconclusive [activator, partial curve]. In the case of `COc1cccc(-c2ccc3ncnc(N(C)Cc4ccco4)c3c2)c1`, the Potency is reported as inconclusive [inhibitor, single point]. For `Cc1ccc2[nH]c(C)c(/C=N/Nc3nc4ccccc4s3)c2c1`, the activity change, negative = inhibition was inactive: 14.9% [at 12.8 µM]. `COc1cc(OC)cc(C(=O)N[C@H](C(=O)OCC(=O)Nc2ccc(C)cc2C)C(C)C)c1` was tested, and the Potency was inconclusive [inhibitor, single point]. For `CC(C)N(Cc1ccccc1)C(=O)C1CCN(c2ncnc3c2nc2n3CCCCC2)CC1`, the Potency was inconclusive [inhibitor, partial curve]. `O=C(N/N=C/c1ccc(O)cc1O)c1ccc(NC(=O)C2CCCCC2)cc1` was tested, and the Potency was inconclusive [inhibitor, partial curve]. For `S=C(Nc1ccccc1)N1CCCCCCC1`, the Potency was inconclusive [inhibitor, single point]. For `O=C(O)c1ccc(N/N=C/c2cc3ccccc3nc2Cl)cc1`, the Potency was “inactive”. With `Cc1[nH]n(C)c(=O)c1C(=O)c1c(-c2c(Cl)cccc2Cl)noc1C` the Potency was inconclusive [activator, partial curve, poor fit]. For `CCN1CCN(S(=O)(=O)c2ccc(Cl)c(C(=O)Nc3ccccc3N3CCCCC3)c2)CC1`, the Potency was inconclusive [inhibitor, single point]. In the case of `O=C(c1cccs1)n1nc(-c2ccco2)nc1SCc1ccccc1`, the Potency is reported as “inactive”. For `CC1=C2[C@H](/C=C(\C)C(=O)O)CC[C@@H](C)[C@H]2CC1`, the Potency was “inactive”. With `O=S(=O)(c1ccccc1)c1cnc(-c2ccccc2)nc1N1CCCCC1` the Potency was inconclusive [activator, partial curve, poor fit]. For `Cc1cc(-c2ccc(C(C)C)c(S(=O)(=O)NCCN3CCC(C)CC3)c2)on1`, the Potency was inconclusive [inhibitor, partial curve, poor fit]. With `COc1ccc(-c2nnc3c4ccccc4c(C)nn23)cc1` the Potency was inconclusive [activator, partial curve]. `COCCNc1nc(-n2nc(C)cc2C)nc2sc3c(c12)CCCC3` was tested, and the Potency was inconclusive [activator, partial curve]. For `Nc1c(-c2cccc([N+](=O)[O-])c2)nc2ccccn12`, the activity change, negative = inhibition was inconclusive: 29.1% [activator]. In the case of `CCCn1c(=NC(=O)CS(=O)(=O)c2ccccc2)sc2cc(S(C)(=O)=O)ccc21`, the Potency is reported as inconclusive [inhibitor, full curve, poor fit]. `Nc1cc(Cl)c(N)cc1Cl` was tested, and the Potency was “inactive”. For `COC(=O)c1ccccc1NC(=O)Cn1nnc(-c2ccc3c(c2)OCO3)n1`, the Potency was inconclusive [inhibitor, single point]. For `O=C(c1ccccc1)c1cc2cc(Cl)ccc2[nH]1`, the Potency was “inactive”. In the case of `Cc1noc(C)c1CSCC(=O)Nc1cc(C(F)(F)F)ccc1N1CCCCC1`, the Potency is reported as inconclusive [activator, partial curve]. For `Cc1cc(OCC(O)CN2CCc3ccccc3C2)cc(C(C)C)c1` (centres undefined), the Potency was inconclusive [inhibitor, partial curve]. For `COc1ccc2[nH]c3c(NCCC4=CCCCC4)ncnc3c2c1`, the Potency was “inactive”. With `CC(=O)c1cc2c(cc1NS(=O)(=O)c1ccccc1F)OCO2` the activity change, negative = inhibition was inconclusive: 29.9% [activator]. With `COc1ccc2nc(NC(=O)C3CCN(C(=O)c4ccco4)CC3)sc2c1` the Potency was “inactive”. For `Cc1cc(C)cc(NC(=O)c2cccc3c2C(=O)N(C2CCCCC2)C3)c1`, the Potency was inconclusive [inhibitor, partial curve, poor fit]. For `O=C1C2=C(NC(=S)NC2c2ccc(Cl)cc2)NC(c2ccc(Cl)cc2)N1c1ccc(Cl)cc1` (centres undefined), the Potency was inconclusive [inhibitor, single point]. For `CC(=O)Oc1cc2oc(=O)cc(C)c2cc1OC(C)=O`, the Potency was inconclusive [activator, single point]. With `CCOC(=O)Cn1nnnc1C(CC)N(Cc1cc2c(C)cc(C)cc2[nH]c1=O)C1CCCC1` (centres undefined) the Potency was inconclusive [inhibitor, full curve, poor fit]. With `O=C(NC1=NCCS1)C1Cc2ccccc2CN1C(=O)c1ccccc1` (centres undefined) the Potency was “inactive”. In the case of `Cc1ccc(-n2c(CNc3cccc(Cl)c3)n[nH]c2=S)cc1`, the Potency is reported as “inactive”. With `Nc1c(Cl)cc(C2=NCCn3nc4cc([N+](=O)[O-])ccc4c32)cc1Cl` the Potency was inconclusive [inhibitor, partial curve]. `O=C(COc1ccccc1)Nc1cccc(-c2cn3cccnc3n2)c1` was tested, and the Potency was inconclusive [activator, partial curve]. In the case of `Nc1nc(-c2ccccc2)nc2sc3c(c12)CCCC3`, the Potency is reported as inconclusive [activator, partial curve, poor fit]. In the case of `CCOC(=O)c1c(NC(=S)N2CCN(C)CC2)sc(C)c1-c1ccccc1`, the Potency is reported as inconclusive [inhibitor, single point]. `Cc1nc2ccccc2c2nc3ccccc3n12` was tested, and the Potency was “inactive”. `Cc1noc(C)c1-c1nc(NCc2cccnc2)c2ccccc2n1` was tested, and the Potency was inconclusive [activator, partial curve].

Reference: PubChem BioAssay AID2101 (National Center for Advancing Translational Sciences (NCATS), 2009)
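For activity change, negative = inhibition in this document: 0% = full enzyme activity and -100% = no enzyme basal.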
Potency is read from the fitted curve at half-maximal effect.
